This experiment addresses full-length wild-type human TRPV4 (human) (UniProt Q9HBA0). The experiment in a line: cryo-EM structure; hTRPV4 purified from HEK 293S cells in GDN (20 mM Tris pH 8.0, 150 mM NaCl, 1 mM βME, 0.01% GDN) with endogenous RhoA carried along; apo state, no added ligands; grids frozen at 22 °C.

In turn, “full-length wild-type human TRPV4 (a stretch of the chain, letters omitted) (natural protein; other documents disagree on this pair)” showed a stoichiometry N of 4 subunits.

The values are drawn from article PMC10290124.
